Structures are written as SMILES. ± gives the uncertainty stated by the source. Over roughly 9,900 compounds, “viability index relative to DMSO control” has its median near 1; the lowest 2% begin near 0.85. This is one part of the list.

This assay deals with Plasmodium falciparum NF54 stage V gametocytes. In words: viability index relative to DMSO control (fraction); higher = less gametocyte killing. To be noted: 2.5 µM, library set: Broad Institute DOS, incubation time: 72 h. In short, it runs like this: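 P. falciparum NF54 stage V gametocytes (serum-free medium, 0.75% gametocytemia, 1.25% hematocrit) were exposed to compound at 2.5 µM for 72 hr at 37°C under low oxygen, then stained with MitoTracker Red CMXRos and saponin for one to two hours. Red particles of 20–70 µm2 in one field per well were counted, and the viability index is that count scaled to the plate mean of solvent-only wells.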
`COCC#Cc1ccc([C@@H]2[C@H](CO)N3C(=O)CN(C(=O)Nc4ccccc4F)C[C@@H]23)cc1` had a viability index of 1.06 ± 0.026.

`C[C@@H]1COCc2cnnn2CC[C@H](Cc2ccccc2)C(=O)N1` showed a viability index of 1.0025 ± 0.001.

For the molecule `COc1cccc(-c2ccc3c(c2)O[C@@H](CN(C)Cc2cccnc2)[C@@H](C)CN([C@@H](C)CO)S3(=O)=O)c1`, the viability index came to 1.101 ± 0.0046.

`CCCC#Cc1cnc2c(c1)C(=O)N([C@H](C)CO)C[C@H](C)[C@H](CN(C)C(=O)Nc1cc(F)ccc1F)O2` had a viability index of 1.02 ± 0.081.

Molecule `CCCNC(=O)[C@@H]1[C@@H](CO)[C@@H]2Cn3c(ccc(C4=CCCC4)c3=O)[C@@H]2N1C(=O)c1cnccn1` showed a viability index of 1.01 ± 0.05.

`C[C@H](NC(=O)C[C@@H]1CC[C@@H]2[C@@H](COc3ccc(NS(=O)(=O)c4ccc(Cl)cc4)cc3C(=O)N2C)O1)c1ccccc1` showed a viability index of 1.02 ± 0.12.

As to `Cc1noc(C)c1S(=O)(=O)N(C)C[C@@H]1OCCCC[C@H](C)Oc2ccc(NS(=O)(=O)c3cn(C)cn3)cc2C(=O)N([C@@H](C)CO)C[C@H]1C`, the viability index amounted to 1.1 ± 0.071.

`C[C@H](CO)N1C[C@H](C)[C@@H](CN(C)S(=O)(=O)c2ccc(Cl)cc2)Oc2c(NC(=O)Nc3ccc(F)cc3)cccc2C1=O`: the viability index worked out at 0.977 ± 0.053.

`CO[C@H]1CC[C@@H]2CCOc3c(C#N)cccc3C(=O)N(C)C[C@@H](OC)[C@@H](C)C(=O)N(C)C[C@@H]1O2` registered a viability index of 1 ± 0.023.

Take `Cc1ccc(S(=O)(=O)N2CC[C@@H]3[C@H](CO)Nc4ccc(-c5cccc(C(=O)N(C)C)c5)cc4[C@@H]32)cc1`: the viability index is 0.77 ± 0.034.

On to `CCc1cnc(N2[C@H](C#N)[C@@H](c3ccc(C#Cc4ccccc4F)cc3)[C@@H]2CO)s1`, for which the viability index was 1.083 ± 0.0039.

`C[C@H]1CN([C@@H](C)CO)C(=O)c2ccccc2-c2ccccc2CO[C@@H]1CN(C)Cc1cccc(C(=O)O)c1` came in with a viability index of 1.11 ± 0.039.

`C[C@H](CO)N1C[C@H](C)[C@@H](CN(C)Cc2cccc3c2OCCCO3)OCc2cnnn2CCCC1=O`: the viability index worked out at 1.06 ± 0.081.

For the molecule `CS(=O)(=O)Nc1ccc2c(c1)[C@@H]1C[C@H](CC(=O)NCc3cc(F)ccc3F)O[C@@H](CO)[C@@H]1O2`, the viability index is 1.109 ± 0.0089.

In the case of `CS(=O)(=O)N1C[C@@H](O)COC[C@H]2O[C@@H](CC(=O)NCc3ccccc3)CC[C@@H]21`, the viability index amounted to 1.13 ± 0.015.

`O=C(C[C@H]1CC[C@@H]2[C@H](COC[C@H](O)CN2C(=O)Nc2cc(Cl)cc(Cl)c2)O1)N1CCOCC1` had a viability index of 1.09 ± 0.043.

Consider `COCCNC(=O)C[C@@H]1CC[C@@H]2[C@H](COc3ccc(NC(=O)Nc4cccc(F)c4)cc3C(=O)N2C)O1`, for which the viability index is 1.16 ± 0.07.

Consider `COc1ccc(CN(C)C[C@@H]2OCc3cnnn3CCCC(=O)N([C@@H](C)CO)C[C@@H]2C)cc1`, for which the viability index was found to be 1.012 ± 0.0093.

Molecule `COc1ccc2c3c([nH]c2c1)[C@@H](CO)N(C[C@]31CCN(CC1)C(C)=O)C(C)=O` displayed a viability index of 0.9689 ± 0.0023.

In turn, `CN(C)CC(=O)N1CC2(C1)[C@@H](c1ccccc1)[C@@H](CO)N2Cc1cc(F)ccc1F` gave a viability index of 1.09 ± 0.057.

`O=C(NC[C@@H]1[C@H](c2ccccc2)[C@@H](CO)N1C(=O)C1CCC1)NC1CCCC1` gave a viability index of 0.976 ± 0.12.

`O=C(C[C@@H]1CC[C@@H]2[C@H](COC[C@H](O)CN2C(=O)c2ccc3c(c2)OCO3)O1)NC1CCC1` returned a viability index of 0.945 ± 0.078.

`CO[C@@H]1CN(C)C(=O)c2cc(NC(=O)Nc3c(C)noc3C)ccc2OC[C@H](C)NC[C@H]1C` showed a viability index of 0.973 ± 0.063.

In the case of `COc1ccc2c3c([C@@H](CO)N(C[C@]33CCN(CC3)C(=O)Nc3c(C)noc3C)C(=O)Nc3ccc(F)cc3)n(C)c2c1`, the viability index was 1 ± 0.062.

As for `CC[C@H]1C/C=C/C[C@@H](C)Oc2ccccc2C(=O)N(C)[C@H](C)C(=O)N1.CC[C@H]1C/C=C\C[C@@H](C)Oc2ccccc2C(=O)N(C)[C@H](C)C(=O)N1`, the viability index was found to be 1.04 ± 0.086.

`CCN1[C@@H]2Cn3c(ccc(-c4ccc(F)cc4)c3=O)[C@H]1[C@@H](C(=O)Nc1nccs1)[C@@H]2CO` yielded a viability index of 1 ± 0.003.

`CCOC(=O)c1cc2c(c(-c3cccc(Br)c3)n1)[C@@H](CCO)N(C(=O)NC(C)C)C2` had a viability index of 0.907 ± 0.017.

In turn, `CN1CCN(C(=O)C[C@@H]2CC[C@H]3[C@@H](COC[C@H](O)CN3Cc3cccc(-c4ccncc4)c3)O2)CC1` registered a viability index of 1.05 ± 0.049.

Molecule `CO[C@@H]1CN(C)C(=O)c2cc(NC(=O)c3cnccn3)ccc2OC[C@@H](C)NC[C@H]1C` yielded a viability index of 1.03 ± 0.04.

Regarding `C[C@@H]1CN([C@@H](C)CO)C(=O)c2ccccc2-c2ccccc2CO[C@@H]1CN(C)S(=O)(=O)c1ccc([N+](=O)[O-])cc1`, the viability index was determined as 0.975 ± 0.0086.

On to `CNC[C@H]1Oc2c(N)cccc2C(=O)N([C@H](C)CO)C[C@@H]1C`, for which the viability index was determined as 1.01 ± 0.083.

`COc1cccc(C(=O)Nc2ccc3c(c2)C(=O)N(C)[C@H]2CC[C@H](CC(=O)NCc4ccc(F)cc4)O[C@@H]2CO3)c1` had a viability index of 1.02 ± 0.086.

As for `NCC[C@H]1CC[C@@H](NC(=O)NC2CCCCC2)[C@H](CO)O1`, the viability index came to 1.03 ± 0.031.

`CC(=O)N1[C@@H](CO)[C@@H](c2ccccc2)[C@@H]1CN(C)S(=O)(=O)c1ccccc1` displayed a viability index of 0.9877 ± 0.0094.

In turn, `CO[C@@H]1CC[C@@H]2CCOc3c(C#N)cccc3C(=O)N(C)C[C@@H](OC)[C@@H](C)C(=O)N(C)C[C@@H]1O2` displayed a viability index of 1.03 ± 0.056.

`O=C(c1ccc2c(c1)OCO2)N1CC[C@@H]2[C@H](CO)Nc3ccc(C#Cc4ccccc4)cc3[C@@H]21`: the viability index stood at 1.07 ± 0.018.

In the case of `COCC(=O)N1CC(=O)N2[C@H](CO)[C@@H](c3ccc(C#CC4CC4)cc3)[C@@H]2C1`, the viability index was 1.11 ± 0.041.

Regarding `CCCNC(=O)N1C[C@@]2(C1)CN([C@@H](CO)c1[nH]c3cc(OC)ccc3c21)C(=O)CN1CCOCC1`, the viability index stood at 1.0913 ± 0.00046.

For `C[C@@H]1CN([C@H](C)CO)C(=O)c2cc(NS(C)(=O)=O)ccc2O[C@@H](C)CCCCO[C@@H]1CN(C)C(=O)Cc1ccccc1`, the viability index came to 1.1 ± 0.011.

Molecule `O=C(C1CCCCC1)N1CC(=O)N2[C@@H](CO)[C@H](c3ccc(-c4ccccc4F)cc3)[C@@H]2C1` registered a viability index of 1.09 ± 0.015.

As for `C[C@@H]1CN([C@@H](C)CO)C(=O)c2ccccc2-c2ccccc2CO[C@@H]1CN(C)C(=O)Nc1ccc(-c2ccccc2)cc1`, the viability index came to 0.977 ± 0.016.

Consider `CCC(=O)Nc1ccc2c(c1)C(=O)N(C)C[C@H](OC)[C@@H](C)CN(C(=O)Cc1cccnc1)[C@@H](C)CO2`, for which the viability index was 0.997 ± 0.013.

For `CN(C)CC(=O)N1CC2(C1)[C@H](c1ccccc1)[C@@H](CO)N2S(C)(=O)=O`, the viability index was 1.07 ± 0.084.

For the molecule `CN1C(=O)c2cc(NS(C)(=O)=O)ccc2OC[C@@H]2O[C@H](CC(=O)N3CCOCC3)CC[C@H]21`, the viability index came out at 0.861 ± 0.079.

In turn, `C[C@H]1CN([C@@H](C)CO)C(=O)CCCn2nncc2CO[C@H]1CN(C)C(=O)Nc1ccnc(N2CCOCC2)c1` displayed a viability index of 1.03 ± 0.011.

The molecule `O=C(C[C@@H]1C[C@@H]2c3cc(NC(=O)C4CCOCC4)ccc3O[C@@H]2[C@@H](CO)O1)NCCN1CCCCC1` displayed a viability index of 1.07 ± 0.12.

`O=C(NC1CCCCC1)N1C[C@@H]2N[C@H](C1)[C@H]2c1ccc(-c2ccc(F)cc2)cc1` came in with a viability index of 0.969 ± 0.05.

The molecule `C/C=C/c1ccc([C@@H]2[C@H]3CNC[C@@H]2N3Cc2cc(F)ccc2F)cc1` gave a viability index of 0.98 ± 0.024.

As to `C[C@@H]1CN([C@H](C)CO)C(=O)CCCn2nncc2CO[C@H]1CN(C)Cc1ccc2c(c1)OCCN2C`, the viability index is 1.02 ± 0.031.

Regarding `CO[C@@H]1CN(C)C(=O)c2cc(NC(=O)c3cccc(F)c3)ccc2OC[C@H](C)N(C)C[C@H]1C`, the viability index stood at 1.026 ± 0.01.

`CCCNC(=O)N1C[C@@]2(C1)CN([C@@H](CO)c1[nH]c3cc(OC)ccc3c21)C(=O)c1ccccc1` had a viability index of 0.967 ± 0.11.

Consider `C[C@@H]1CCCCO[C@H](CN(C)S(=O)(=O)c2ccccc2)[C@H](C)CN([C@@H](C)CO)C(=O)c2cc(NC(=O)Nc3ccc4c(c3)OCO4)ccc2O1`, for which the viability index worked out at 0.948 ± 0.031.

For `CCN1C[C@@H](C)[C@H](OC)CN(C)C(=O)c2cc(NC(=O)c3ccno3)ccc2OC[C@H]1C`, the viability index was found to be 1.04 ± 0.017.

Regarding `CN(C)C(=O)C[C@H]1C[C@H]2c3cc(NC(=O)c4cccnc4)ccc3O[C@H]2[C@H](CO)O1`, the viability index came to 0.962 ± 0.025.

`C/C=C/c1ccc([C@@H]2[C@@H](CN(CC)C(=O)CN(C)C)N(C(C)=O)[C@H]2CO)cc1` displayed a viability index of 1.07 ± 0.029.

For the molecule `COCC(=O)N1C[C@@]2(C1)CN(Cc1cccc(F)c1)[C@@H](CO)c1c2c2ccc(OC)cc2n1C`, the viability index was determined as 0.899 ± 0.095.

`C[C@H]1CN([C@@H](C)CO)C(=O)c2cc(N(C)C)ccc2O[C@@H]1CN(C)Cc1ccc(Oc2ccccc2)cc1`: the viability index amounted to 0.94 ± 0.021.

Molecule `CN1c2ccc(C3=CCCCC3)cc2[C@@H]2[C@@H](CCN2C(=O)c2ccc3c(c2)OCO3)[C@@H]1CO` gave a viability index of 0.868 ± 0.015.

On to `C[C@@H]1CN([C@@H](C)CO)C(=O)CCCn2cc(nn2)CO[C@H]1CN(C)C(=O)Nc1cccc2ccccc12`, for which the viability index came to 0.942 ± 0.036.

Take `CCCNC(=O)N1C[C@]2(CCN(CC2)S(=O)(=O)c2ccccc2)c2c([C@H]1CO)n(C)c1cc(OC)ccc21`: the viability index was determined as 0.9945 ± 0.0077.

For the molecule `O=C(C[C@@H]1CC[C@@H]2[C@H](COC[C@H](O)CN2Cc2cccc(Cl)c2)O1)NCc1cccc(F)c1`, the viability index was determined as 1.06 ± 0.013.

In turn, `C[C@@H]1CCCCO[C@H](CN(C)S(=O)(=O)c2ccc(F)cc2)[C@@H](C)CN([C@H](C)CO)C(=O)c2cc(NC(=O)CCCCCC(=O)Nc3ccccc3N)ccc2O1` had a viability index of 1.08 ± 0.027.

For the molecule `COc1ccc(-c2ccc([C@H]3[C@@H](C#N)N(C(=O)NC(C)C)[C@@H]3CO)cc2)cc1`, the viability index is 1.1 ± 0.052.

For the molecule `CO[C@@H]1CN(C)C(=O)c2ccc(NC(=O)c3nc4ccccc4s3)cc2OC[C@@H](C)N(Cc2cccnc2)C[C@H]1C`, the viability index is 1.05 ± 0.044.

In the case of `Cc1ccccc1-c1ccc([C@H]2[C@@H]3CN(Cc4cncnc4)C[C@H]2N3)cc1`, the viability index worked out at 1.05 ± 0.065.

For `O=C(C[C@H]1CC[C@@H](NC(=O)C2CCOCC2)[C@@H](CO)O1)NCC1CCCCC1`, the viability index came out at 1.15 ± 0.1.

`C[C@@H]1CN([C@H](C)CO)C(=O)Cc2cc(NS(=O)(=O)c3cccs3)ccc2O[C@H]1CN(C)CC1CCCCC1` registered a viability index of 1.07 ± 0.028.

For `CCCNC(=O)N[C@@H]1C=C[C@@H](CC(=O)N2CCN(C)CC2)O[C@H]1CO`, the viability index was 0.968 ± 0.059.

The molecule `CCCC(=O)N1CC[C@@]2(CC1)CN[C@@H](CO)c1[nH]c3cc(OC)ccc3c21` had a viability index of 1.14 ± 0.095.

For `C/C=C/c1ccccc1[C@@H]1[C@@H](CO)N(C(C)=O)[C@H]1C#N`, the viability index is 1.09 ± 0.09.

Values taken from the supplement of paper PMC4723716.
